Data taken from PubChem BioAssay AID1508642 (National Center for Advancing Translational Sciences (NCATS), 2021).
The whole screen tested about 43,000 compounds, of which about 200 (0.47%) were called active. About 12% were inconclusive and are not listed. Calls follow the shape of the dose curve; as a rule, active = well fitted cell-killing curve with a large enough effect; inconclusive = small, poorly fitted or top-dose-only effect, or effect the other way; inactive = flat fitted curve, though single readings scatter. The list shows a part of the results.

experiment: Cell viability qHTS assay in S16 Pmp22-F2sN cells; conditions: S16 Pmp22-F2sN Schwann cells viability, CellTiter-Glo, 24 h; series mostly up to 57.5 µM; activity change, negative = cytotoxicity: at the top concentration; also: nearly all actives have a fitted effect of over 65% in size
Outline: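 S16 Pmp22-F2sN Schwann cells (500-1,000/well) in phenol-red-free DMEM with 10% FBS received 23 nL compound by pin tool for 24 h at 37 °C. Viability was then read as CellTiter-Glo luminescence after 15 min at room temperature.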
% is scaled to controls: 0 for no effect and ±100 for the full control effect.

Compound | activity change, negative = cytotoxicity
COC(=O)c1ccc(C(=O)OC)c(NC(=O)c2cnn3c(C(F)F)cc(-c4ccc(C)cc4)nc23)c1 | inactive: 4.08%
O=C(Cn1c(-c2cccs2)cc2cc(F)ccc21)N1CCCCC1 | inactive: -6.17%
Cc1cccc(N2CCN(c3ncnc4c3cnn4-c3ccc(Cl)cc3)CC2C)c1 (stereo not drawn) | inactive: 15.2%
COC(=O)c1scc(-c2ccc(C)cc2)c1S(=O)(=O)N1CCN(c2ccccc2F)CC1 | inactive: -8.9%
COc1cccc(C(=O)Nc2c3c(nn2-c2ccc(C)cc2C)CS(=O)(=O)C3)c1OC | inactive: -3.55%
CCOCCc1nn2c(=O)cc(COC(=O)c3ccccc3NC(=O)CC(C)C)nc2s1 | inactive: -1.65%
COc1ccc(N(C)S(=O)(=O)c2ccc3c(c2)n(C)c(=O)c(=O)n3C)cc1 | inactive: 0.151%
CCOc1ccc(-c2noc(CSc3nnc(Cc4ccccc4)n3-c3ccc(F)cc3)n2)cc1 | inactive: -8.78%
CCC(=O)Nc1ccccc1C(=O)OCc1cc(=O)n2cc(C)sc2n1 | inactive: 2.78%
COc1ccc(OC)c(NC(=O)Cn2c(CCC(=O)O)ccc2-c2ccccc2)c1 | inactive: 9.8%
CC(C)CCN1C(=O)c2ccccc2CC1(C)C(=O)NC1CCCCC1 (stereo not drawn) | inactive: 5.22%
Cc1cccc(N(C)C(=O)c2cc3c(=O)oc4ccc(C)cc4c3s2)c1 | inactive: 4.9%
O=C(Nc1c(C(=O)N2CCN(c3ccccc3)CC2)oc2ccccc12)c1ccccc1F | inactive: 9.84%
CCOc1ccc(-n2nc3ccc(NC(=O)c4ccc(C)cc4C)cc3n2)cc1 | inactive: 7.99%
Cc1ccc(CCNC(=O)c2cc3cc(S(=O)(=O)N4CCCCC4)ccc3n2C)cc1 | inactive: -0.84%
CC1CC(=O)N(CC(=O)Nc2ccc(OC(F)(F)F)cc2)c2ccccc2S1 (stereo not drawn) | inactive: 2.68%
CCCN1CCN(C(=O)Cn2ncc3c4ccccc4n(Cc4cccc(Cl)c4)c3c2=O)CC1 | inactive: -4.43%
Cc1cc(OCC(=O)Nc2nc3c(s2)CCCC3)cc(C)c1Cl | inactive: 3.32%
CCOC(=O)c1ccccc1NC(=O)COc1cc(=O)n(CC)c2ccccc12 | inactive: 11.7%
Cc1ccccc1C(=O)n1nc(-c2cccnc2)nc1NCc1ccc(F)cc1 | inactive: -1.98%
CCN(CCCNC(=O)Cn1ncc2c3ccccc3n(C)c2c1=O)c1cccc(C)c1 | inactive: 24.6%
COc1cc(OC)c(NC(=O)Cn2cnc3c(nc4n3CCCCC4)c2=O)cc1Cl | inactive: 2.49%
O=C(CN1CCN(C2CCCCC2)C(=O)C1=O)Nc1ccc(Cl)cc1 | inactive: 1.35%
COc1ccc(NC(=O)CC(C)S(=O)(=O)c2ccc3c(c2)NC(=O)CO3)cc1OC (stereo not drawn) | inactive: 5.68%

Compound | activity change, negative = cytotoxicity
Cc1cccc(C)c1NC(=O)Cn1c(=O)cc(C)c2c(C)nn(-c3cccc(Cl)c3C)c21 | inactive: -10.3%
COc1ccc(Cl)cc1NC(=O)c1sc2nc3c(cc2c1N)CN(C)CC3 | inactive: 19.1%
CCOc1ccccc1NC(=O)Cn1c(=O)n(Cc2ccccc2)c(=O)c2c3c(sc21)CN(C(C)=O)CC3 | inactive: 14.3%
O=C1CCCc2[nH]c(=O)c(-c3nc(-c4cccc([N+](=O)[O-])c4)cs3)cc21 | inactive: -17.2%
COc1ccc(-c2nc(CNC(=O)NC3CCCCC3)c(C)o2)c(OC)c1 | inactive: 7.53%
CC(=O)c1ccc(NC(=O)Cn2c(=O)oc3cc(S(=O)(=O)N4CCCCC4)ccc32)cc1 | inactive: 0.617%
CC1=C(c2ccc(C)cc2)S(=O)(=O)N(Cc2ccc(C(=O)NCc3ccccc3F)cc2)C1=O | inactive: -8.34%
O=S(=O)(NCCc1cn2ccsc2n1)c1ccc(Cl)cc1 | inactive: 7.32%
O=C(CN1C(=O)COc2ccc(S(=O)(=O)N3CCOCC3)cc21)N1CCN(c2ccc(Cl)cc2)CC1 | inactive: 23.7%
CCCCCCc1cc2cc(-c3cn4c(n3)sc3cc(OC)ccc34)c(=O)oc2cc1O | inactive: 7.55%
CCOC(=O)c1cc2c(=O)n3ccccc3nc2n(Cc2ccco2)c1=NC(=O)c1ccc(F)cc1 | inactive: -27.5%
O=C(CCCn1c(=O)[nH]c2ccccc2c1=O)N1CCN(c2ccccc2)CC1 | inactive: -1.87%
Cc1cc(C)c(/C=C/c2onc(C)c2S(=O)(=O)N2CCC(C(=O)Nc3ccc(Cl)cc3C)CC2)c(C)c1 | inactive: 1.18%
O=C(COCc1cc(-c2cccs2)on1)NCc1cccc(Cl)c1 | inactive: 13.9%
COc1cc(NC(=O)c2nn(-c3ccc(F)cc3)c(=O)n(C)c2=O)cc(OC)c1OC | inactive: -23.6%
CCn1c(C(=O)N2CCC(C(=O)NCCCOC)CC2)cc2sccc21 | inactive: 4.91%
Cc1cn(S(=O)(=O)c2ccc(F)c(Cl)c2)cn1 | inactive: 15.4%
O=C(Cn1c(=O)n(CCc2ccccc2)c(=O)c2c3c(sc21)CCCC3)Nc1ccc(F)c(F)c1 | inactive: 14.4%
Brc1ccc(CN2CCc3nc(N4CCN(c5ncccn5)CC4)ncc3C2)cc1 | inactive: -2.3%
CCCc1nnc(NC(=O)Cc2coc3ccc(C)cc23)s1 | inactive: -5.29%
COc1ccc(NC(=O)CSc2nc3c(c(=O)[nH]2)CCC3)cc1 | inactive: 3.96%
CCC1CCc2nc3sc(C(=O)Nc4ccc(F)c(F)c4)c(N)c3cc2C1 (stereo not drawn) | inactive: 9.46%
CCOC(=O)c1c(C)c(C(=O)NCc2ccc(Cl)cc2)c(C)n1CC | inactive: -0.424%
CC(C)c1ccccc1Oc1c(C(F)(F)F)oc2c(CN3CCN(C)CC3)c(O)ccc2c1=O | inactive: -22.9%
